Read counts are not given, so values of variants with three or more changes are uncertain.

B1: CPEB3 Ribozyme (parent)
chain: UAACAGGGGGCCACAGCAGAAGCGUUCACGUCGCAGCCCCUGUCAGAUUCUGGUGAAUCUGCGAAUUCUGCUGUAUAUCUC

Variants of B1 are the subject of this series. The series is described as follows: self-cleavage, relative activity (ratio to wild type); higher = more cleavage; in vitro, sequencing. The method, boiled down: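 For each CPEB3 ribozyme variant, relative activity is its cleaved/total read fraction divided by the unmutated ribozyme's. Barcoded error-prone PCR libraries were transcribed by T7 RNA polymerase (5 hours, 37°C) and held in DNase I for 15 min before an EDTA stop, with cleavage occurring throughout. Template-switching reverse transcription and Illumina sequencing were used to read the RNAs. A 5-read minimum applied, and results are the mean of three batches.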
On to C27A A57U U58C A64G, for which the self-cleavage came out at 0.07. The figure for C27U A35G C79U is 0.62. Consider U26C A47G U80C, for which the self-cleavage worked out at 0.39. For A28G A64U G70A U74A the value was 0.09; for U26C A57G U60A A64U U72C, 0.16. For U26A U60A G61C the value was 0.19; for U26C A47U U48C A56G U58C U76C A77G, 0.1.

As to U26C C29G U31A U48C A56U, the self-cleavage came out at 0.17. In the case of A28G A64U U78C, the self-cleavage came out at 0.21.

As to U26C C39A U41C U43A U67C U80C, the self-cleavage stood at 0.09. The figure for C27U A28U A56G U58C U60C G61U C71U is 0.04. Turning to U26G U66G U78A, the self-cleavage is 0.19. The figure for A28G A45G A65U U76A U80C is 0.11; for U26C A35G A45G U69A it is 0.47. For U26C U51C U69C the value was 0.09; for C27U U31C U60C U80C, 0.21; for U26C U58G U72C, 0.17. The figure for U26C U58C C62U U72C is 0.08; for U26C A35G C38U A64U it is 0.42; for A28C A35U A64G it is 0.33. For the variant U26C U31C U54A, the self-cleavage is 0.31. For the variant A28G A35U C68G A77G, the self-cleavage was determined as 0.21. For U26G U41C A64G the value was 0.23. As for U26C A35G U72C, the self-cleavage came to 0.95. Consider C27U U31A U41C U60A U72C, for which the self-cleavage was determined as 0.16. The figure for U26C U41C U58C U66A U72G is 0.08; for C27A A47U A65G U78C it is 0.08; for U26C U54A U58C U69A it is 0.11. For C27A U41C G46C U48C A64G the value was 0.13; for U26C U49C U67A, 0.07. For A28G A47U U72A the value was 0.13. Take U26C U51A C59A C71A U72C: the self-cleavage turned out to be 0.08. For U26C C32G A47G U48C A65G U72A the value was 0.11; for A28G C40U U41G A75G U78C, 0.08; for U26C C37G A45G U54G G55U A65G U80A, 0.05. For U26C A56U U72C the value was 0.39; for U26C U43C A64G, 0.45; for A28G A45G U76C, 0.62. For U26C U31C A35C G36A U60A the value was 0.13; for A28C U43C U49C A64G U72G, 0.03; for A28G A45G U51C A77U, 0.38. For U26G U49C A64U U72C, the self-cleavage turned out to be 0.05. For U26C A56U U58G U60C A64G the value was 0.29; for U26C U51A U60C U78A, 0.13.

Turning to C27U U49A U72A, the self-cleavage was found to be 0.36. For U26C A45G G52A A65G U80C the value was 0.59; for U26C U31C U60A A65G U72G, 0.06. Consider C27U A57G U78C, for which the self-cleavage was determined as 0.37.

Consider C27A U66C C71U, for which the self-cleavage is 0.09. Take U26C U31C G63A U74C U76C: the self-cleavage was 0.27. For U26C A35U A56G A65U U69C the value was 0.12; for U26C A45G U48C U58A, 0.08; for U26C A64G A77U, 0.42.

A28G C39U U48C A64G: the self-cleavage was determined as 0.1. Turning to A28G A47U A57G A64G U76C, the self-cleavage was determined as 0.12.

On to A28G A45U U49G A56G U66C U74C, for which the self-cleavage was 0.06. Consider U26C U43C U51A, for which the self-cleavage turned out to be 0.58. The figure for A28G C29U G33C A45U G46A U51C U76C is 0.13; for U26A U60C U67C it is 0.19. Consider A28G A35U U48C U51A A56C A64C, for which the self-cleavage came out at 0.07. For the variant U26C C37U U58C, the self-cleavage turned out to be 0.15. Regarding U26C A35G U41C U43A, the self-cleavage was 0.07. With U26C A35G G42A, the self-cleavage turned out to be 0.4. The figure for U26C U51A U69C is 0.39; for U26C U31C A77U U80C it is 0.27. Turning to U26C A77U U78A, the self-cleavage was found to be 0.46. Consider A28G A45U U80C, for which the self-cleavage was 0.29. Regarding A28C U31A U41C G63A A64G A65G, the self-cleavage is 0.27.

With U26C U60C A64G, the self-cleavage amounted to 0.09.

For U26C U54C A77U, the self-cleavage is 0.58.

In the case of U26C U49A U76A U80C, the self-cleavage stood at 0.15. For U26C U51A A75U, the self-cleavage came to 0.56. For C27U U72G U80C the value was 0.2.

Take A28C U41C U72A: the self-cleavage was 0.18.

Turning to U26C U66C U74A, the self-cleavage came out at 0.22. The figure for U26C A35U U54C is 0.12.

For the variant U26C U31C C34U A64G, the self-cleavage is 0.15. The figure for A28C U58G U80C is 0.09; for U26C A28G A65G it is 0.14; for A28G A35U U48C C81U it is 0.09. For A28G C40A U58A U78C C79G the value was 0.3; for U26C A35U A47G A56G, 0.1; for U26C C29U A45C G52A U76C U78C, 0.19. For U26C A45G U54A U67C the value was 0.19; for U26C U31A U41C G46A A56U U78A, 0.2. In the case of A28G C37U U43A U51A U69A A77G, the self-cleavage was 0.09. For A28G C37A U43C U51A A65C U76C C79U the value was 0.04; for U26C C29G A65G A77G U78C, 0.1.

For U26C C29U A45U, the self-cleavage worked out at 0.26. With U26C U41A A65G, the self-cleavage turned out to be 0.2. The figure for U26C A28G U41G is 0.11. For A28G A45U G53A U60C the value was 0.12; for U26C U41A U54C, 0.3. With U26C U51C U74C, the self-cleavage came to 0.81.

As to U26C U54A A56U, the self-cleavage was determined as 0.23. For U26C U54A A56G the value was 0.27. The figure for U26C U60C A75U U78C is 0.15. The figure for U26C U51C U58C U69C is 0; for U26C C38U A45G U74A U78C it is 0.35. Take U26C A45G A57G U69C U72A U78A: the self-cleavage stood at 0.09. In the case of C27A A64G U67C, the self-cleavage was 0.23.

For C27A C34U A35G U60C, the self-cleavage amounted to 0.13. For U26C C39A A47G U49C the value was 0.08; for U26C A28U C44U U51A U58A, 0.09; for A28G A35G A57G A65G U69A G70U, 0.34. The figure for U26C U41A U76C is 0.32; for C27U U31C G33A A56G A57G U78C it is 0.06; for A28G C34U U74A A77G it is 0.19. The figure for U26C U48C U66A is 0.44; for A28C U48C U58C it is 0.15; for U26C A28U U48C A75G it is 0.33.

On to U26G A47G U67C, for which the self-cleavage was 0.07. Turning to U26C A45G A64G U66C U80C, the self-cleavage stood at 0.13. With U26C U31A G33A U51C U60C U76A, the self-cleavage is 0.13. The figure for A28G C32A A35G U51G A64G is 0.39; for U26C G30A A35U it is 0.15; for U26C U31C U51A it is 0.28.

Consider U26C U51A A57U, for which the self-cleavage was 0.36.

With U26C A35U U49C U74C, the self-cleavage was determined as 0.1. The figure for A28G C40G U49G U51G is 0.06. Consider U26C G33A U80A, for which the self-cleavage is 0.18. The figure for A28G A57G U66A is 0.11; for U26C U51A U78A it is 0.46. For U26C U48A A56G the value was 0.11; for U26C C40A A56U, 0.22; for A28G A47U U58C U67C U74C U80A, 0.12.

For A28G C32A G63A, the self-cleavage worked out at 0.12. Regarding A28G A57U A65G, the self-cleavage came to 0.06.

U26C U31A C37U U49C A56U: the self-cleavage is 0.08. Take C27U G53A U69A: the self-cleavage was determined as 0.14. For A28G C38A U41C U51A the value was 0.1. As for C27U U31C A45G U60A C62U, the self-cleavage stood at 0.07. The figure for A28G C38G A45G U51A U69C is 0.06; for U26C A45G U72C U76C it is 0.28. The figure for U26C U41A U51C is 0.36. With U26C A28U C62U, the self-cleavage amounted to 0.11. For C27A U41C A45G, the self-cleavage came to 0.24.

Take U26C U43A U54C: the self-cleavage amounted to 0.21.

For A28G C39G U69C, the self-cleavage came out at 0.35. For A28G C34U U58C U69A the value was 0.09; for A28G A75G U80A, 0.47. The figure for A28C U67C U76A is 0.12. The figure for A28C U49C U60G C62U is 0.06; for U26C U48A U51A it is 0.22; for A28C U60C U72A it is 0.28. For U26A U67C A75G U80C, the self-cleavage was 0.1. The figure for A28C U31A U54A is 0.27; for U26C C44U A47G U69A U78C it is 0.07.

C27A U41A A45U A64G A65U: the self-cleavage came out at 0.11. For A28C A57G G63A U66C A75G A77U, the self-cleavage worked out at 0.11. A28G A47G U51C U54A A57U U69A: the self-cleavage was 0.08. For C27A U41A A64G A65U the value was 0.12; for U26C U43G U48C, 0.41. The figure for A28C U51A U66A is 0.12; for U26C U54A U60C it is 0.21; for U26C U31C U43A U60A it is 0.06.

Regarding U26C C34U U48C A64U U78C, the self-cleavage is 0.12. For U26C A45U U58C U72C, the self-cleavage came out at 0.06. For the variant A28G C38U U60A C71U, the self-cleavage was 0.08. A28G A35G U76C: the self-cleavage was determined as 1.16. The figure for C27U U48C U51A is 0.15. With A28G A56U A64G U69A U72A, the self-cleavage turned out to be 0.09.

On to U26G U60C U66C C79U, for which the self-cleavage was 0.17. As for A28G A77G U78C, the self-cleavage worked out at 0.38.

Consider U26C A28G C71G, for which the self-cleavage turned out to be 0.09. The figure for A28G A57G U60C A64U U74C is 0.13; for U26C U60A C62A U69A U74C it is 0.13.
